Assay results as given in patent US10287311B2, “Modified fluorinated nucleoside analogues” (priority 2003, dated 2019).
Read-outs that look alike come from different tables or passages of the source.

What was measured:
MDCK cells = test: Cytotoxicity (CPE, Neutral Red) in MDCK cells of the antiviral tests
[1] = Cellular toxicity in other replicons, MTT
GAPDH = test: Cellular toxicity in other replicons, GAPDH; assay type: cell-based
[2] = HCV 1a (pp1aSI-7) replicon cells

C[C@@]1(F)[C@H](O)[C@@H](CO)O[C@H]1n1ccc(N)nc1=O
> 100 µM: CC50 (MDCK cells; read-out: CC50, CPE, Influenza A (H3N2) test) | CC50 (MDCK cells; read-out: CC50, NR, Influenza A (H1N1) test, Neutral Red) | CC50 (MDCK cells; read-out: CC50, NR, Influenza A (H3N2) test, Neutral Red) | IC90 [1, 2] | IC90 ([1]; HCV 1b (Btat) replicon cells) | IC90 ([1]; HCV 1b (Ntat) replicon cells) | IC90 (GAPDH; [2]) | IC90 (GAPDH; HCV 1b (Btat) replicon cells) | IC90 (GAPDH; HCV 1b (Ntat) replicon cells)

C[C@@]1(O)[C@H](O)[C@@H](CO)O[C@H]1n1ccc(N)nc1=O [2′-C-methylcytidine, reference compound]
> 100 µM: IC90 [1, 2] | IC90 ([1]; HCV 1b (Btat) replicon cells) | IC90 ([1]; HCV 1b (Ntat) replicon cells) | IC90 (GAPDH; [2]) | IC90 (GAPDH; HCV 1b (Btat) replicon cells) | IC90 (GAPDH; HCV 1b (Ntat) replicon cells)
